{
  "source": "paper PMC6172241",
  "about": "“A multisubstrate reductase from Plantago major: structure-function in the short chain reductase superfamily” (Scientific Reports, 2018)",
  "biological_target": "PmMOR (P. major multisubstrate oxido-reductase) (Plantago major, UniProt D6N9X1, V150M)",
  "experiment": "crystal structure",
  "settings": "ternary complex with NADP+, 2.56 Å; ligand density of poor quality",
  "data": [
    {"smiles": "CC(=O)[C@H]1CC[C@H]2[C@@H]3CCC4=CC(=O)CC[C@]4(C)[C@H]3CC[C@]12C", "note": "[progesterone]", "values": [
      {"measurement": "crystal structure", "result": "we co-crystallized PmMOR^V150M with progesterone and NADP^+"}
    ]}
  ]
}
